# Measurements: article PMC4336329 (PLoS ONE, 2015)
# Out of some 310,000 compounds screened, about 2,200 (0.71%) showed an effect of 50% or more. The effect is printed as a negative number. The list shows a part of the results.
# Biological target: human ether-à-go-go-related gene (hERG) potassium channel (human, UniProt Q12809)
# Test: primary screen, population patch clamp on CHO cells stably expressing hERG
# Chain of human ether-à-go-go-related gene (hERG) potassium channel (Q12809 whole entry, looked up): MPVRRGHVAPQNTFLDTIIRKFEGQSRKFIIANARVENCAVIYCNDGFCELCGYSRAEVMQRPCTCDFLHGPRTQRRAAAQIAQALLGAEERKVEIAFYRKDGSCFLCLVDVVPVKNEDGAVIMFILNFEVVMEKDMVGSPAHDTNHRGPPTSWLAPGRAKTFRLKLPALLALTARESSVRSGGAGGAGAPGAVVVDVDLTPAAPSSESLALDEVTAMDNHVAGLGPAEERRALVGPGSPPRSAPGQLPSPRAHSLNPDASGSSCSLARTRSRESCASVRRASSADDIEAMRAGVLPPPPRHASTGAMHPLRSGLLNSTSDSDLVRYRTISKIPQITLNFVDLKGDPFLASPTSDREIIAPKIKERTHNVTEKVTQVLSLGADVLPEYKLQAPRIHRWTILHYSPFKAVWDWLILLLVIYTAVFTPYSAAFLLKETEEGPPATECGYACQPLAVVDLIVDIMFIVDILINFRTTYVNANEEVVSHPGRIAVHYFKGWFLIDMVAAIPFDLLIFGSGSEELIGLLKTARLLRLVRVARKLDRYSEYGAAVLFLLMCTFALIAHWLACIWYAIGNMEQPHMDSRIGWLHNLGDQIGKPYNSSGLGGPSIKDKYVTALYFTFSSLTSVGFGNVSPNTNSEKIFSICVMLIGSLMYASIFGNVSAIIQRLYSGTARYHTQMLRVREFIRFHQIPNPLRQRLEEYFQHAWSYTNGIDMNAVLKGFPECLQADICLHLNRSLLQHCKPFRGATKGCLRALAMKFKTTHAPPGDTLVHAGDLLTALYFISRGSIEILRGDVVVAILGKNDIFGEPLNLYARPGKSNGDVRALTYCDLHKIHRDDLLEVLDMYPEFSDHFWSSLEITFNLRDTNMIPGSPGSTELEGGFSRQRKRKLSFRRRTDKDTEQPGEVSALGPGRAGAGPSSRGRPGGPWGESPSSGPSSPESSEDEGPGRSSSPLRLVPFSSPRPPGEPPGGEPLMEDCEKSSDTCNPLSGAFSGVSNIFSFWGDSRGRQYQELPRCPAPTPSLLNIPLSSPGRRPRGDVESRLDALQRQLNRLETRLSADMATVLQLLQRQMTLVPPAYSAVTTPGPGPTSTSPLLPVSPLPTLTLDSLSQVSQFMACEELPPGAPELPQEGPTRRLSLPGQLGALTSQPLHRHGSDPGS
row,SMILES,"hERG current change (%, negative = inhibition) at 1uM"
1,O=C(NC1CC1)C(Cc1ccccc1)NS(=O)(=O)c1ccccc1F (centres unmarked),15.3%
2,COC(=O)c1ccc(NC(=S)N2CCN(CCO)CC2)cc1,9.6%
3,Cn1c2ccc(F)cc2c2ncn(Cc3ccccn3)c(=O)c21,-2%
4,O=C(CN1C(=O)c2ccccc2S1(=O)=O)NC(Nc1ccccc1F)C(Cl)(Cl)Cl (centres unmarked),6.55%
5,CN(C)CC1CCCCC1OC(=O)Cc1ccc(Cl)c([N+](=O)[O-])c1 (centres unmarked),10.3%
6,CC12CCC(C/C1=N\OC(=O)c1c(F)cccc1F)C2(C)C (centres unmarked),9.64%
7,COC(=O)c1[nH]c(=O)c2ccccc2c1O,15.4%
8,CNC(=S)Nc1ccc(OCc2ccccc2)cc1,7.17%
9,C#CCN(C(=O)Nc1ccccc1)c1ccccc1,6.39%
10,COc1ccc(C(C)(C)C)cc1NC(=O)CCNC(=O)c1ccco1,6.6%
11,c1nc2n(n1)C1=C(CCCC1)C1(CCCCC1)N2,9.53%
12,COc1cccc2c1OCC/C2=N\NC(=O)COc1ccccc1C,-13.9%
13,CCOC(=O)c1c(C)c2c(=O)[nH]cnc2n1-c1ccccc1,9.66%
14,Cc1ccccc1-n1c(C)nc2ccccc21,-4.05%
15,Cc1c(C(=O)O)oc2c(F)cccc12,19.5%
16,Cc1ccc(NCCC(=O)c2cccs2)cc1C,5.33%
17,C/C(CCC(C)C)=N\NS(=O)(=O)c1ccc(C)c([N+](=O)[O-])c1,-1.92%
18,Cc1cc(Br)c(NC(=O)COC(=O)C2CC2C)c(Br)c1 (centres unmarked),8.62%
19,O=C(NCc1ccco1)C(c1ccco1)N(C(=O)Cn1nnc2ccccc21)c1ccc2c(c1)CCC2 (centres unmarked),4.84%
20,CC1=CCC2C(=O)N(c3cccc(C(=O)Nc4ccccc4Cl)c3)C(=O)C2C1 (centres unmarked),6.69%
21,CC(=O)N1CCN(C(=S)NCc2ccccc2)CC1,12.7%
22,CCOc1ccccc1NC(=O)C(OC(=O)c1ccc(CC)cc1)c1ccccc1 (centres unmarked),4.75%
23,CCN(CC)CCC(C)OC(=O)c1ccc(O)cc1O.Cl (centres unmarked),-0.912%

row,SMILES,"hERG current change (%, negative = inhibition) at 1uM"
1,O=C(NCC1(N2CCCCC2)CCCCC1)c1ccc(NS(=O)(=O)c2ccccc2)cc1,5.37%
2,CCOC(=O)CNC(=O)COc1coc(CN2CCN(c3ccc(F)cc3)CC2)cc1=O,11.9%
3,Cc1nc2sccn2c(=O)c1S(=O)(=O)NCc1ccccc1,9.92%
4,O=C(NCCCN1CCCC1)Nc1ccc(F)cc1,6.95%
5,O=C(Cn1nnc2ccccc2c1=O)NCc1ccc(Cl)cc1,10.3%
6,Oc1ccccc1-c1cc(C(F)(F)C(F)F)nc(-c2ccccc2)n1,7.21%
7,CCOC(=O)c1[nH]c2ccc(Br)cc2c1NC(=O)CCN1CCC(C)CC1,-36.9%
8,CC(C)[C@@H](C(=O)NC1CCCC1)N1C(=O)N2CCc3c([nH]c4ccccc34)[C@@]2(C)C1=O,10.3%
9,Cc1ccc(NC(=S)N2CCN(C(=O)C3CCCO3)CC2)cc1 (centres unmarked),10.2%
10,Cn1cc(CN2CCC(C(=O)N3CCCCC3)CC2)c(-c2ccccc2F)n1,5.6%
11,COc1ccc2c(c1)c(=O)oc1cc3occ(C(C)(C)C)c3cc12,0.3%
12,CC(C(=O)Nc1ccccn1)c1ccccc1 (centres unmarked),12.8%
13,CCN1CCCC1CNC(=O)CS(=O)(=O)Cc1nc(-c2ccccc2C)oc1C (centres unmarked),5.36%
14,Cc1ccccc1NC(=O)COC(=O)CNC(=O)c1sc2ccccc2c1Cl,11.6%
15,O=C(Oc1cccnc1)c1ccccc1[N+](=O)[O-],7.51%
16,CC(=O)OCc1c(COC(C)=O)[n+](=O)c2ccccc2n1[O-],-4.58%
17,COC(=O)/C=C/S(=O)(=O)c1ccc(NC(C)=O)cc1,5.47%
18,CCOc1cc(S(=O)(=O)n2cnc(C)c2)ccc1Cl,7.15%
19,c1ccc(CN=C2Nc3ccccc3CS2)nc1,12.2%
20,CC(=O)c1c(-c2ccccc2)c2ccccc2[nH]c1=O,13.5%
21,CC(OC(=O)Cc1c[nH]c2ccccc12)C(=O)Nc1ccccc1F (centres unmarked),3.81%
22,COc1ccc(CC(=O)OCC(=O)Nc2cc(S(=O)(=O)N3CCOCC3)ccc2N2CCCC2)cc1,-3.25%
23,COc1cc(O)oc1C=Nc1ccc(Oc2ccccc2)cc1,14.4%

row,SMILES,"hERG current change (%, negative = inhibition) at 1uM"
1,CCc1cccc2c(C(=O)CSc3nnc(-c4ccncc4)n3C)c[nH]c12,5.13%
2,Cn1c(N)c(C(=O)COC(=O)c2ccccn2)c(=O)n(C)c1=O,0.675%
3,COc1ccc(CCN(C)C(=O)c2ccc(COc3ccccc3)o2)cc1OC,9.02%
4,O=C(NCc1cccc(Br)c1)C1CC(c2ccccc2C(F)(F)F)=NO1 (centres unmarked),0.641%
5,CSc1ccccc1NC(=O)N1CCCC(C(=O)c2ccc3c(c2)OCO3)C1 (centres unmarked),3.41%
6,O=C1CCC(c2ccccc2)=NN1Cc1c(F)cccc1Cl,9.84%
7,CC(C)C(=O)N1CCN(c2ccc(NC(=O)c3ccc([N+](=O)[O-])o3)cc2)CC1,0.15%
8,Cc1cccc(NC(=O)C(=O)N/N=C/c2ccncc2)c1,8.76%
9,COc1ccc(C)cc1-n1c(SCC(=O)Nc2cc(C)on2)nc2sc(C)c(C)c2c1=O,-1.95%
10,S=c1[nH]nc(COc2ccc3c(c2)OCO3)n1-c1ccccc1,12.5%
11,Cc1ccc(CCN2CC(C(=O)NCCN3CCCCCC3)CC2=O)cc1 (centres unmarked),9.52%
12,COc1ccc(C(=O)N/N=C/c2c(CO)cnc(C)c2O)cc1,9.25%
13,O=C(Nc1ccc(F)c(Cl)c1)Nc1cnccn1,9.43%
14,CCOc1ccc(C(=O)NC(=S)Nc2ccc(N3CCCCC3)cc2)cc1[N+](=O)[O-],12.1%
15,CC(=O)c1ccc(NC(=S)NC(=O)/C=C/c2ccc(F)cc2)cc1,17%
16,O=C(COC(=O)C1CCN(S(=O)(=O)c2cccs2)CC1)c1ccccc1,24%
17,Cc1cc(C)c(C)c(OCCn2ccnc2)c1,14.4%
18,C=CC(=O)N(CCC)C(c1ccccc1)c1ccccc1OC (centres unmarked),11.1%
19,O=C(Nc1nc2nc(-c3ccccc3)cc(=O)n2[nH]1)c1ccccc1,12.8%
20,CC(C)Oc1cccc(C(=O)NC(=S)Nc2ccccc2)c1,5.02%
21,COc1ccc(C(=O)NC2CCN(CC(=O)Nc3c(C)cccc3C)CC2)cc1OC,12.7%
22,CCC(=O)c1cc2c(C)cc(=O)oc2c(C)c1O,1.78%
23,CCc1nn(CCCC(=O)NC(C)c2ccccc2)c(=O)c2cc3occc3n12 (centres unmarked),2.58%

row,SMILES,"hERG current change (%, negative = inhibition) at 1uM"
1,Cn1cc(-c2cc(C(=O)O)on2)cn1,4.82%
2,Clc1ccc(OCCCCCN2CCCC2)c(Br)c1,-3.46%
3,COc1cc(/C=C/C(=O)OCC(=O)N2CCC(C)CC2)ccc1OCC#N,8.55%
4,COc1ccc(S(N)(=O)=O)cc1C(=O)NCC1(N2CCCCC2)CCCCC1,7.44%
5,Cc1ccsc1C(=O)N1CCN(c2ccccn2)CC1,10%
6,COc1cc(/C=N/N(C)c2ccccc2)cc(Cl)c1O,11.7%
7,O=C(/C=C/c1ccco1)NCC(=O)N/N=C/c1ccc([N+](=O)[O-])cc1,14.6%
8,O=CN1CCN(C(C(=O)NC2CCCC2)c2ccc(Cl)cc2)CC1 (centres unmarked),-7.61%
9,Cc1ccc(NC(=O)C(=O)NCc2ccc(/C=C(/C#N)C(=O)NCc3cccnc3)o2)cc1,-13.6%
10,Cn1cc(S(=O)(=O)Nc2cccc(F)c2)c(=O)n(C)c1=O,-12.9%
11,CCOc1ccc(NS(=O)(=O)c2cc(NC(=O)CCC(=O)c3cccs3)ccc2Cl)cc1,13.7%
12,COc1ccc([C@H]2CC(=O)C=C(c3cc(C(F)(F)F)cc(C(F)(F)F)c3)C2)cc1,10.3%
13,CNC(=O)c1oc(-c2ccccc2)nc1C,3.57%
14,CN1CCN(C(=S)SCC(=O)Nc2nc(-c3ccccc3)c(-c3ccccc3)o2)CC1,-1.46%
15,CCOC(=O)CCC(=O)N1CCOCCOCCN(C(=O)CCC(=O)OCC)CCOCCOCC1,11%
16,CCOc1ccc(C(=O)Nc2ccccc2N2CCCC2)cc1,-1.85%
17,CCOC(=O)c1sc(NC(=O)CSc2n[nH]c(-c3ccccc3)n2)c(C#N)c1C,-0.898%
18,Cc1ccc(OCC(O)CN2CCOCC2)cc1C.Cl (centres unmarked),16.1%
19,C/C(=N\NS(C)(=O)=O)c1ccc(C)cc1,9.38%
20,Cc1cccc(NC(=S)NCC(c2cccnc2)N2CCOCC2)c1 (centres unmarked),18.9%
21,Nc1cc(C(=O)N/N=C/c2cccc([N+](=O)[O-])c2)n[nH]c1=O,13.1%
22,CC(C)C(=O)N1CCN(c2ccccc2NC(=O)Cc2ccc(Cl)cc2)CC1,-38.9%
23,CN(CCC#N)C(=S)Nc1ccc(S(=O)(=O)N2CCOCC2)cc1,18.2%
